The other results are listed elsewhere or left out. Viral Rep nickase domains cut single-stranded DNA in vitro (3 µM enzyme, 1 h, 37 °C); shown is the middle of each 90-letter strand. Uncut reads are compared with the no-enzyme pool on a log2 scale; strong cutting gives strongly negative numbers. There is no active / inactive call. The scaling is to total reads; uncut strands gain when others are lost, and binding without cutting may add a little.
Legend:
Assay in all cases: uncleaved DNA left, log2 of reads against the no-enzyme library (log2 ratio); higher = less cleavage (more negative = more Rep cleavage of the k-mer); sequences stand for … in CTCGTCCG…ACCGGAGA
[1] = tested on: T1, Rep nickase domain of Muscovy duck circovirus
T1 sequence (residues 1-111, tag not shown): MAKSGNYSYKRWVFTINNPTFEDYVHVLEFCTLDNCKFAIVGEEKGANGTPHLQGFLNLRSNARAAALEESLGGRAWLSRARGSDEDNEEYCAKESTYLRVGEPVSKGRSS
Description: (§1)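 A pool of 90-nt single-stranded DNAs with seven random bases just before the constant AC of the nick site (name = the seven bases) was cut by 3 µM recombinant His6-SUMO-tagged Rep nickase domain (300 nM DNA, 50 mM HEPES pH 8.0, 50 mM NaCl, 1 mM MnCl2, 1 h, 37 °C, three replicates). Uncut DNA was amplified and sequenced.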

[2] = tested on: T2, Rep nickase domain of banana bunchy top virus
T2 sequence (residues 1-94, tag not shown): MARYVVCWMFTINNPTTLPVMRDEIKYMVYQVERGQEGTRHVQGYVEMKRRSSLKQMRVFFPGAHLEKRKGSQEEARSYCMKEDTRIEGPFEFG
Description: as §1

[3] = tested on: T3, Rep nickase domain of cabbage leaf curl virus
T3 sequence (residues 1-116, tag not shown): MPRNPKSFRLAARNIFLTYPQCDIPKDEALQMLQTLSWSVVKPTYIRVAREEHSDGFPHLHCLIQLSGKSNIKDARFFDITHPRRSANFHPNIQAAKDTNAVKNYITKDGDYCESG
Description: as §1

[4] = tested on: T4, Rep nickase domain of chickpea chlorotic dwarf virus
T4 sequence (residues 1-124, tag not shown): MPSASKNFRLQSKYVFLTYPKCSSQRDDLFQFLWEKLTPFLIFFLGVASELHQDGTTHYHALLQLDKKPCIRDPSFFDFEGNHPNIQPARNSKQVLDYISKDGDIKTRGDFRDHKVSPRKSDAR
Description: as §1

[5] = tested on: T5, Rep nickase domain of faba bean necrotic yellows virus
T5 sequence (residues 1-98, tag not shown): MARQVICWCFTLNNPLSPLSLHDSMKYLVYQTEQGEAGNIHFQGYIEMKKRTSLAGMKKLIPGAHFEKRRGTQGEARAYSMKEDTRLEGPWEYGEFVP
Description: as §1

[6] = tested on: T6, Rep nickase domain of maize striate mosaic virus
T6 sequence (residues 1-117, tag not shown): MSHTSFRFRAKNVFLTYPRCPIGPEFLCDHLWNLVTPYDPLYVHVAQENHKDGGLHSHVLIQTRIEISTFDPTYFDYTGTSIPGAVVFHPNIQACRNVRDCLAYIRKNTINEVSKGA
Description: as §1

[7] = tested on: T7, Rep nickase domain of porcine circovirus 2
T7 sequence (residues 2-116, tag not shown): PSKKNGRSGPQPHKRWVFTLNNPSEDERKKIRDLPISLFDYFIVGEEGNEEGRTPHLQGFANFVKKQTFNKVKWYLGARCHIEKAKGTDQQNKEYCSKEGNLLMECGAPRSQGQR
Description: as §1

[8] = tested on: T8, Rep nickase domain of tomato golden mosaic virus
T8 sequence (residues 1-124, tag not shown): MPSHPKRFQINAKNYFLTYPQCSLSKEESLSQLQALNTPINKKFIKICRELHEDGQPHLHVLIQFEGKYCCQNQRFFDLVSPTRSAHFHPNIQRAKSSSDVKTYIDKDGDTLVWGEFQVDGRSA
Description: as §1

[9] = tested on: T9, Rep nickase domain of tomato yellow leaf curl virus
T9 sequence (residues 1-136, tag not shown): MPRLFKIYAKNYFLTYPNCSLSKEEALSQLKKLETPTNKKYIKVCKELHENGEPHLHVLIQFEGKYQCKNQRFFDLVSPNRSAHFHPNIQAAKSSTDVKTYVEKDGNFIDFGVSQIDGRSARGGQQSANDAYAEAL
Description: as §1

[10] = tested on: T10, Rep nickase domain of wheat dwarf virus
T10 sequence (residues 1-137, tag not shown): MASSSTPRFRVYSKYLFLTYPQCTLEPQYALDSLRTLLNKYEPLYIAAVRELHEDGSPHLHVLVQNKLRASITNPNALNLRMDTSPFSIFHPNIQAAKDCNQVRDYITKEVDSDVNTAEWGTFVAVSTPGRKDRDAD
Description: as §1

Sequence	uncleaved DNA left (log2) [1]	uncleaved DNA left (log2) [2]	uncleaved DNA left (log2) [3]	uncleaved DNA left (log2) [4]	uncleaved DNA left (log2) [5]	uncleaved DNA left (log2) [6]	uncleaved DNA left (log2) [7]	uncleaved DNA left (log2) [8]	uncleaved DNA left (log2) [9]	uncleaved DNA left (log2) [10]
AGCTACG	-0.0263	0.0689	-0.13	-0.0424	-0.0424	-0.204	0.151	0.108	-0.0377	0.0284
AGCTGAG	0.117	0.0885	-0.419	-0.0738	0.11	-0.959	0.41	0.124	0.176	0.076
CGGAAAC	-0.0479	0.0251	0.219	0.429	-0.0133	0.195	0.0353	-0.149	0.0484	0.116
CCTCCTC	-0.0512	-0.0419	0.128	-0.154	-0.0984	-0.149	-0.0977	-0.0681	-0.00095	-0.0416
TATCGGT	0.0584	0.0384	0.16	-0.0352	0.02	1.14	-0.104	0.0594	-0.014	0.0931
TTCAGTT	0.0225	-0.0131	-0.115	-1.79	-0.0901	-0.365	-0.336	-0.0454	-0.00625	-0.193
TTACGCG	0.0236	-0.0346	-1.09	-0.274	0.0648	-0.688	-0.00771	-0.045	-0.0575	-0.117
TCTAACT	0.00841	-0.2	-0.444	-2.73	0.0216	-0.713	-0.696	-0.182	-0.0161	-0.134
CATGCAG	0.0575	-0.0971	-0.738	-0.165	0.0651	-0.795	0.14	-0.00889	0.0404	-0.109
AAGCGGC	-0.0675	-0.103	-0.0723	0.27	-0.025	-0.0221	0.0922	0.102	-0.114	-0.0149
GACTGAG	0.026	-0.0935	-0.342	-0.287	-0.0523	-0.898	0.0955	-0.0601	0.00701	-0.142
TTCCAAT	-0.0107	0.046	0.0757	-0.193	-0.115	-0.256	-0.168	-0.116	-0.0629	-0.00921
TCCTCGT	0.0476	-0.0943	-0.257	-0.922	-0.048	-0.945	-0.231	-0.0421	0.0227	-0.0956
TATCAGG	-0.0104	-0.0885	0.476	1.21	-0.113	1.42	-0.0288	0.0587	-0.198	-0.0398
TTAATCT	0.0533	0.107	0.281	-1.7	0.104	-0.136	-0.167	-0.00214	0.0813	0.0278
AAATATG	0.0109	-0.106	-0.534	-0.417	0.0837	-1.15	0.117	0.00222	0.0958	0.0181
ATGACGT	-0.063	0.0393	-0.0293	0.0421	-0.0926	-0.299	-0.00516	0.0951	-0.0483	0.0336
CCCATGG	0.0559	0.0109	-0.279	-0.0989	-0.0859	-0.926	0.0998	-0.117	0.0247	0.00547
CAGACTT	-0.0588	-1.86	-0.0449	-0.379	-0.92	1.22	-3.32	-0.124	-0.023	-0.0192
TTCTCAG	0.0582	-0.0798	-0.586	-0.763	0.0691	-1.23	0.0755	-0.000216	0.0142	-0.0853
CAAGCCC	0.0398	-0.0755	-0.147	-0.298	-0.0612	-0.245	0.0275	0.0382	-0.105	-0.0231
CCCAATT	-0.0227	0.0189	-0.199	-2.14	0.058	-0.838	-0.327	-0.00737	0.0148	-0.104
CTAACAT	0.112	0.125	-0.161	-0.839	0.017	0.142	-0.048	-0.0298	0.00555	0.0706
TAAGCGC	0.094	-0.00675	-0.792	-0.624	0.0222	-1.08	0.11	-0.113	0.123	-0.22
TGGATTT	0.0547	-0.0532	0.529	0.512	-0.0731	1.66	-0.0368	0.0133	-0.0207	0.0879
ACACTCC	-0.0464	0.0182	-0.0404	0.476	0.109	1.01	0.143	0.0743	-0.104	0.0355
CGGAGGT	-0.0156	0.00158	0.263	0.876	0.021	1.05	0.0164	-0.0173	-0.157	0.00608
TACCTTG	-0.131	-0.0727	-0.45	-2.11	-0.0915	-1.09	-0.56	-0.167	-0.122	-0.149
CTTATGC	-0.131	-0.0298	-0.567	-0.587	-0.115	-1.25	0.037	-0.0819	-0.0265	-0.035
ACGTTAA	-0.00682	-0.11	-0.0979	-0.153	0.0404	-0.512	-0.00945	0.0194	-0.17	-0.147
